# Test results as given in the supplement of paper PMC11417369.
# ± gives the standard deviation of the averaged measurements. The list shows a part of the results.
# Tested on: PfAP2-G AP2 domain (GST-tagged)
# Experiment: gcPBM binding intensity (ln(normalized median fluorescence intensity)); higher = stronger DNA binding
# Method in brief: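 Probes on an Agilent 4 × 180k array were primer-extended, double-stranded and 36 bp long, taken from intergenic genomic regions, with negative controls added. GST-tagged P. falciparum DNA-binding domains from E. coli, about 25 μg on average, were applied to the array for 1 h in 1× PBS containing 1% milk, 0.2 mg/ml BSA, 0.5% salmon testes DNA and 0.03% Triton X-100. Binding intensity, obtained after Alexa488 anti-GST antibody detection and a 488 nm scan, is the highest Masliner-normalised natural-log median intensity across replicate spots of either probe orientation.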
row,Sequence,gcPBM binding intensity (ln)
1,GTTTGAATGGCGCACTGTACACATATATACATATAG [XGTACX_site8619],11.5 ± 0.79
2,ACAAAATTATGTAGATGTACAGACATAGAAAGAGAT [XGTACX_site3096],11.3 ± 0.67
3,ATTTATGAAAAATGTACACACATCAAATGCTTATAT [CACACA_site4068],11.3 ± 0.73
4,GATATTATAAAATAAAAATAAATCATTTCTATTCAT [CACACA_negctrl_site334],9.48 ± 0.13
5,TATATATATATGTGTACACATGTCGCATTTTTTTAT [CACACA_site4648],11.6 ± 0.86
6,TCATGGAATATTTAAAGTACAAAAAGTGTTCTTTAC [XGTACX_site715],11.2 ± 0.69
7,TAGTCATATATATATGTACACACATATATATATTTA [CACACA_site8413],11.2 ± 0.91
8,TTATGTGTATAGGTTTGTACATAAAATGATGTATAG [XGTACX_site1401],10.9 ± 0.58
9,TTTTCTTATAAATGAAGTACAAAAAAAAAATATATA [XGTACX_site1352],11.3 ± 0.81
10,TGATAGCACCTTATATGTACATATAATATATTATTA [XGTACX_site837],11.1 ± 0.65
11,ATATATTATGGGTGTGCACACAATATTTATATGTTC [CACACA_site2270],10.6 ± 0.29
12,TTATAATAAATATATAAAAAAAAAAAAAAAAAAAAA [CACACA_negctrl_site1639],9.43 ± 0.54
13,TTTTAAATATGCCATACACACTACTCTATAATAAAT [CACACA_site6987],9.995 ± 0.092
14,TTATCATATAATTATTGTACTAAAAAAAAAGCGAGT [XGTACX_site3086],11.2 ± 0.87
15,ACATATATGGAGCTTATACACACTTTTATATTTTAA [CACACA_site3854],10.04 ± 0.049
16,TAATATGTTTATGGTAACATACAAAAATGTATATAT [GTGCAC_negctrl_site204],10.2 ± 0.26
17,TATTTTTTATTTTAAATCCTCTGATATTTAATTTGT [TGCATGCA_negctrl_site84],9.905 ± 0.021
18,TATCCCCTTGTCCATATTAATTGTGACATCATATAT [XGTACX_negctrl_site9],10.7 ± 0.48
19,ATGTGTATATATATGTGTACATAATTTGTGTTATTC [XGTACX_site2509],11.4 ± 0.84
20,TGAAAAATGTAATGCTCACACATATATATATATATA [CACACA_site5213],10 ± 0.46
21,GATTTTAATGGGTGTACACATTTATTTATATAAAGT [CACACA_site5317],11.7 ± 0.93
22,AAGGTATAATATATTTGTACATATACATTTTTGAAT [XGTACX_site6493],10.9 ± 0.61

row,Sequence,gcPBM binding intensity (ln)
1,TTATGGTGCATGAAATCACACATTGATATATATGCT [CACACA_site5352],9.72 ± 0.15
2,ATATATATATATATATGTACATATATATATTATATT [XGTACX_site6303],11.2 ± 0.63
3,ACATTTAAATAATATGTGCACAGCTATATTTTCTTT [GTGCAC_site9562],10.3
4,TTATTTTTTTGGAATTCACACACAAAAAAAAAAATA [CACACA_site8650],10.1 ± 0.4
5,AATTGAGAAGTGTGTTGTACATAATGGCACATACCT [XGTACX_site1370],11.2 ± 0.7
6,ACCTTAAAAATAACTGCACACAAAAATAAATACCTT [CACACA_site8902],10.2 ± 0.23
7,ACGTAAACATGTAGAAGGCATTACACAATGGTATAC [TGCATGCA_negctrl_site512],9.91 ± 0.18
8,TAGAATGAAAAAAAAGCATGCGGGCAAAAATTTTTA [TGCATGCA_site926],9.97 ± 0.19
9,GTGTCTTTTATTAAATGTACATATTCATAGATAAAA [XGTACX_site8578],11.3 ± 0.87
10,TTTTTAATATATATCACACATATATATTTTTAATTA [CACACA_site6099],9.49 ± 0.14
11,ATAAAAATCTTTAGTAGTACATTATAAAAAACTATT [XGTACX_site5531],11.4 ± 0.88
12,ATGTGAACATTCAATGCACACGATGTAATTATACAT [CACACA_site15],10.1 ± 0.18
13,CTAATCGTGCACAACTGTACATTTGTCAAGGGCAAT [XGTACX_site8662],11.1 ± 0.65
14,AAAAAAAAAATGAGCACACATAAATAAAAACAAACA [CACACA_site1573],10.14 ± 0.035
15,ACCTATTTCAAACACACACACACACTAACAAACATA [CACACA_site8233],10.3 ± 0.29
16,TATATATCTGTGAAAATACTTAAATTGTTATAAAAA [CACACA_negctrl_site1109],9.88 ± 0.071
17,CGGCTATTTCTATATACATGCATTTAAAAAAAAAAT [TGCATGCA_site354],10.1 ± 0.42
18,AATTTAAAACGGAGATGTACATATATAAATATATAC [XGTACX_site3723],11.2 ± 0.71
19,AACATATATTAGCTTACATGCAAAAAGTAAAAAAAT [TGCATGCA_site10],9.97 ± 0.028
20,AAAACATCAAAAATGTGTACATATATATATATATAT [XGTACX_site8884],11.4 ± 1.1
21,ATATATATATATGCATGTACATATTTATCTTTATAT [XGTACX_site232],11.1 ± 0.57
22,AAATTCTGCATCGAGGTGCGCCATAAAAATTGTGGT,10.2 ± 0.17

row,Sequence,gcPBM binding intensity (ln)
1,TACTAAAACCCATACACACACATATTTATAGTACCA [CACACA_site7484],10.7 ± 0.42
2,ATATTATATATATACACACACACATGCATGCACATA [CACACA_site7917],10.05 ± 0.028
3,TATTTTCTCGTTTGCATGCACCTTATTTTATGTGGT [GTGCAC_site9470],10.14 ± 0.057
4,TAAAATTTGCGATGCACACAGAATAGCTAATATGAC [CACACA_site2995],10.3 ± 0.28
5,CATAAATTAAAACACACACACACAAAAAAAAAAAAA [CACACA_site2262],9.88 ± 0.59
6,AGTTATTTTAAATGTAGTACACAAAAGAAATATTAA [XGTACX_site4092],11.6 ± 0.94
7,TACTATTTAAAATTTGAACACACATTATTTATTTTA [CACACA_site9020],9.94 ± 0.24
8,TTTATTTAAAAAATAAAAAAAAAAAAAAAAAAAAAA [CACACA_negctrl_site1670],9.54 ± 0.22
9,TTTAAAAATATATATTGTACATATATATATCTATGA [XGTACX_site3556],10.9 ± 0.61
10,ATAAAAATTAAAAGGAGTACTTAAATATTAAGATGG [XGTACX_site4815],11.5 ± 0.71
11,AACATAAAAATTGAAGCACACACACTAATGAAATAC [CACACA_site8287],10.5 ± 0.13
12,ACAAATCTATAAGAGTGTACGAACAGTAAAGGAATT [XGTACX_site2070],11.2 ± 0.64
13,CAGTTGGAAGGAAAGTGTACATAAAAAAAAATATAA [XGTACX_site8784],11.5 ± 0.93
14,AAAATACCATTTGAAACACACAAAAAAAAAAAAAAT [CACACA_site2981],9.83 ± 0.042
15,TATACAATATATATAACACACATATTTATATAAAAT [CACACA_site5061],9.75 ± 0.18
16,AATATATTTCGAGATACACACATATATAAAAAAAAA [CACACA_site3398],10.2 ± 0.4
17,AAAAAAAAAAAAAAGACACACAATGTGAAATAATAA [CACACA_site804],10.1 ± 0.11
18,AATAGAACAAATAAAACACACACATATATATATATA [CACACA_site8893],9.9 ± 0.23
19,ATATATCACAATAAAATTTATAGAATTTTAAATAAG [TGCATGCA_negctrl_site437],9.685 ± 0.078
20,AAAATAAAATAAAATACACACATACATACATACAAA [CACACA_site5366],10.01 ± 0.028
21,CAATAAAGAGGGAATTGTACTTTAAATATCCCTCTT [XGTACX_site1991],11 ± 0.61
22,TCTTATTTTTTTATATATACAAAGTTTTATATATAT [GTGCAC_negctrl_site314],9.915 ± 0.049

row,Sequence,gcPBM binding intensity (ln)
1,TTTTAAAGAAAATATTTTATCATTATTTTTTGTACT [CACACA_negctrl_site1648],9.84 ± 0.25
2,TTTTAAAATTTTTTTTTTTTTTTTTTATGAACAAGT [GTGCAC_negctrl_site124],9.73 ± 0.35
3,AATATTTTAAATATTGCATGCAATGAAAAATGTAAA [TGCATGCA_site139],9.98 ± 0.12
4,TATTTTATTGTTGTTATACACACCATATAAAATATT [CACACA_site1630],10.1 ± 0.12
5,ACTTGACACCAACACACACACATATATAAAAAAAAA [CACACA_site756],10.4 ± 0.49
6,GTTCAATCGGGTGTTACTTCAAACAAGGAACAACAA [TGCATGCA_negctrl_site471],10.4 ± 0.42
7,ATAGTAAATATAAAAAGTACTGATTCTTAAATTGTT [XGTACX_site5972],11 ± 0.66
8,ATAATATAAATAAAAACACACACAATCGTACATATA [CACACA_site9223],11.1 ± 0.6
9,AACAAAAATGAAAAAACACACATAACATATATAAAT [CACACA_site740],9.94 ± 0.014
10,AAAAAAAAAAAAAAAGTGCACTGAAAATATATTGAA [GTGCAC_site9395],10.8 ± 0.56
11,TTTTTAATTATTTATATAACGATAATCCTTACATAA [TGCATGCA_negctrl_site180],9.635 ± 0.007
12,ATATAATATATGTAAGTGCGCTTATAAATAAAACGA [GTGCAC_site9841],10.1 ± 0.19
13,ATATATTGATATATGTGTACATAGCTTATTTCATTT [XGTACX_site1800],11.4 ± 0.84
14,TATATAGAAAACAAGGCATGCAAATAACAAATTGTG [TGCATGCA_site473],10.2 ± 0.19
15,ATATAATATATATGGTGTACATTTTTTAGTGCTATT [XGTACX_site1662],11.4 ± 0.76
16,TCTTTTTTTTTTTATTGTACAAGAAAAGGAAAAAAT [XGTACX_site3717],11.1 ± 0.99
17,ATATTTTTATATTAGTGTACTTATTATAATGTATAG [XGTACX_site8185],11.5 ± 1
18,TAAAAGAATAAAAGTAGTACTTTTTTTTATATTAGA [XGTACX_site368],11.4 ± 0.93
19,AAAAAGTGACTCCTTACACACTTTACATAATTTAGT [CACACA_site4606],10.2 ± 0.13
20,ATATACACCGTTGAATGTACATAAATAATATTAATA [XGTACX_site2893],11.1 ± 0.57
21,ATAATATGTAATATTACACACAATTCATCATTTTTT [CACACA_site3159],9.845 ± 0.092
22,AGTACATTTTTTTTAATAGGAAAAAAAATATTTATT [TGCATGCA_negctrl_site575],10.5 ± 0.3
